Values after ≈ are worked out from the molar mass of the structure shown. ± gives the standard deviation of the averaged measurements. M. abscessus ATCC 19977 and its deletion, point and complemented mutants after 5 days of drug at 37 °C plus 24 h of resazurin. Growth in % of untreated wells at the dose given (lower = more inhibition); checkerboards give % inhibition (higher = more inhibition); IC50 from the fitted curve (lower = more potent). No active / inactive call. IC50 values come from the same 384-well curves. Growth is not capped and can exceed 100%. The direction of the checkerboard scale is read from the raw signals. Capreomycin is a mixture.
Columns and labels:
[1] = tested on: Mycobacterium abscessus ATCC 19977; test: growth inhibition; higher = more inhibition
Experimental: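 384-well checkerboard, three replicates; 5 days at 37 °C, then 24 h with resazurin; fluorescence scaled to growth and killed controls.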

[2] = tested on: Mycobacterium abscessus ATCC 19977 WhiB7 A51T
Experimental: (§1)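 384-well two-fold dose series, two replicates; 5 days at 37 °C, then 24 h with resazurin; fluorescence scaled to growth and killed controls.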

[3] = tested on: Mycobacterium abscessus ATCC 19977 WhiB7 R76del
Experimental: as §1

[4] = tested on: Mycobacterium abscessus ATCC 19977 WhiB7 L37P
Experimental: as §1

[5] = tested on: Mycobacterium abscessus ATCC 19977 Eis2 T258R
Experimental: as §1

[6] = tested on: Mycobacterium abscessus ATCC 19977 Eis2 Y227D
Experimental: as §1

[7] = tested on: Mycobacterium abscessus ATCC 19977 Eis2 Y255*
Experimental: as §1

[8] = tested on: Mycobacterium abscessus ATCC 19977 Eis2 E120fs
Experimental: as §1

[9] = tested on: Mycobacterium abscessus ATCC 19977 ΔwhiB7
Experimental: as §1

[10] = tested on: Mycobacterium abscessus ATCC 19977 Δeis2
Experimental: as §1

[11] = tested on: Mycobacterium abscessus ATCC 19977 WhiB7 F24fs
Experimental: as §1

[12] = tested on: Mycobacterium abscessus ATCC 19977 Eis2 Y284*
Experimental: as §1

[13] = tested on: Mycobacterium abscessus ATCC 19977 WhiB7 T70fs
Experimental: as §1

[14] = tested on: Mycobacterium abscessus ATCC 19977 Δcat; test: growth relative to untreated wells; higher = more growth
Experimental: (§2)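 Two-fold dose series, three replicates; 5 days at 37 °C, then 24 h with resazurin; fluorescence scaled to growth and killed controls.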

[15] = tested on: Mycobacterium abscessus ATCC 19977 ΔwhiB7; test: as above
Experimental: as §2

[16] = tested on: Mycobacterium abscessus ATCC 19977; test: as above
Experimental: as §2

[17] = tested on: Mycobacterium abscessus ATCC 19977 WhiB7 A51T; test: growth relative to untreated wells; higher = more growth (less inhibition)
Experimental: as §1

CS(=O)(=O)c1ccc([C@@H](O)[C@H](N)CF)cc1 [florfenicol amine] + CC[C@H]1OC(=O)[C@H](C)[C@@H](O[C@H]2C[C@@](C)(OC)[C@@H](O)[C@H](C)O2)[C@H](C)[C@@H](O[C@@H]2O[C@H](C)C[C@H](N(C)C)[C@H]2O)[C@](C)(OC)C[C@@H](C)C(=O)[C@H](C)[C@@H](O)[C@]1(C)O [Clarithromycin]
growth inhibition [%], [1]
Settings | partner concentration 0.003906 µg/mL | partner concentration 0.007812 µg/mL | partner concentration 0.01562 µg/mL | partner concentration 0.03125 µg/mL | partner concentration 0.0625 µg/mL | partner concentration 0.125 µg/mL | partner concentration 0.25 µg/mL | partner concentration 0.5 µg/mL | partner concentration 1 µg/mL | partner concentration 2 µg/mL
0.241504 µg/mL | 17.7 ± 6.9 | 8.89 ± 1.2 | -8.91 ± 2.8 | -19.8 ± 1.1 | -11 ± 2.9 | 69.1 ± 3 | 98.27 ± 0.67 | 101.7 ± 0.17 | 103.3 ± 0.35 | 103.4 ± 0.36
0.483008 µg/mL | 11.4 ± 7.1 | 4.1 ± 5.7 | -9.12 ± 2.1 | -15 ± 1 | 5.26 ± 3.7 | 80.4 ± 1.9 | 98 ± 2.9 | 102.6 ± 0.21 | 103.57 ± 0.061 | 103.7 ± 0.13
0.966016 µg/mL | -17.1 ± 4.3 | -19.2 ± 4.5 | -24.4 ± 1.7 | -22.8 ± 2.6 | 11.7 ± 1.8 | 83.3 ± 2.7 | 96.9 ± 0.51 | 101.4 ± 0.47 | 102.9 ± 0.29 | 103.2 ± 0.41
1.93203 µg/mL | -17.8 ± 3 | -16 ± 1.7 | -13.2 ± 4.7 | -7.81 ± 2.2 | 49.8 ± 2.8 | 95.34 ± 0.38 | 98.5 ± 1.1 | 102.4 ± 0.2 | 103.52 ± 0.076 | 103.7 ± 0.2
3.86406 µg/mL | -11.6 ± 1.8 | -7.39 ± 2.7 | -5.44 ± 1.6 | 15 ± 7.1 | 70.6 ± 3.6 | 99.3 ± 0.61 | 101.2 ± 0.15 | 98.9 ± 7.5 | 104.2 ± 0.23 | 103 ± 2.5
7.72813 µg/mL | -6.88 ± 4.2 | 10.7 ± 14 | 31.7 ± 9.4 | 55.8 ± 9 | 95.28 ± 0.17 | 101.6 ± 0.21 | 99.9 ± 4.7 | 103.92 ± 0.068 | 104.41 ± 0.095 | 104.47 ± 0.086
15.4563 µg/mL | 72.4 ± 5.2 | 84.5 ± 1.8 | 87.2 ± 1.1 | 92.48 ± 0.62 | 99.21 ± 0.91 | 103.5 ± 0.27 | 103 ± 2.4 | 104.5 ± 0.2 | 104.68 ± 0.041 | 104.8 ± 0.2
30.9125 µg/mL | 90.87 ± 0.43 | 92.02 ± 0.53 | 93.65 ± 0.25 | 97.07 ± 0.27 | 102.8 ± 0.71 | 104.8 ± 0.42 | 104.8 ± 0.29 | 104.7 ± 0.12 | 104.9 ± 0.2 | 105.1 ± 0.6
61.825 µg/mL | 95.22 ± 0.61 | 93.72 ± 0.75 | 95.9 ± 1 | 100.7 ± 1 | 104.6 ± 0.46 | 105.2 ± 0.28 | 102 ± 3.8 | 104.5 ± 0.29 | 104.4 ± 0.17 | 104.6 ± 0.57
123.65 µg/mL | 100 ± 1.2 | 101 ± 1.1 | 102.8 ± 0.65 | 103.9 ± 0.35 | 104.5 ± 0.48 | 104.6 ± 0.43 | 103.9 ± 0.42 | 103.9 ± 0.38 | 103.7 ± 0.26 | 103.8 ± 0.2

CS(=O)(=O)c1ccc([C@@H](O)[C@@H](CF)NC(=O)C(Cl)Cl)cc1 [florfenicol]
Settings | IC50 [µg/mL]
[2] | 41.1 (≈ 115 µM)
[3] | 28.9 (≈ 80.7 µM)
[4] | 39.4 (≈ 110 µM)
[5] | 18.5 (≈ 51.7 µM)
[6] | 30 (≈ 83.8 µM)
[7] | 23.6 (≈ 65.9 µM)
[8] | 29.8 (≈ 83.1 µM)
[9] | 43.9 (≈ 122 µM)
[10] | 20.9 (≈ 58.2 µM)
[11] | 29.7 (≈ 82.9 µM)
[12] | 17.9 (≈ 50 µM)
[13] | 33.1 (≈ 92.5 µM)

growth [%]
Settings | [14] | [15] | [16] | [17]
0.5 µg/mL | – | – | – | 99.3 ± 2.8
1 µg/mL | 86.1 ± 18 | 95.2 ± 9.1 | 97 ± 3.4 | 110 ± 2.1
2 µg/mL | 94.4 ± 9.5 | 102 ± 1.2 | 105 ± 12 | 107 ± 4.4
4 µg/mL | 90.5 ± 3.8 | 99.6 ± 10 | 100 ± 10 | 117.8 ± 0.56
8 µg/mL | 84.8 ± 14 | 104 ± 1.4 | 94 ± 7.8 | 120 ± 1.4
16 µg/mL | 80.5 ± 10 | 101 ± 8.3 | 84.6 ± 5.4 | 117 ± 1.2
32 µg/mL | 63 ± 14 | 94.4 ± 8.1 | 53.4 ± 20 | 73.5 ± 14
64 µg/mL | 28.9 ± 7 | 73 ± 3.6 | 3.19 ± 9.6 | 13.7 ± 0.79
128 µg/mL | -0.197 ± 1.2 | 8.69 ± 0.72 | -3.6 ± 4.4 | 4.19 ± 0.18
256 µg/mL | -3.01 ± 0.91 | 10.2 ± 19 | -2.96 ± 4.2 | -2.12 ± 0.044
512 µg/mL | -0.942 ± 1.1 | 9.08 ± 12 | 2.87 ± 5.2 | -2.32 ± 0.1
1024 µg/mL | – | – | – | -1.85 ± 0.46

CNC1CC(N)C(O)C(OC2OC(CO)C(O)C3OC4(OC(C(N)CO)C(O)C(O)C4O)OC23)C1O (stereo not drawn) [hygromycin B]
Settings | IC50 [µg/mL]
[2] | 13.2 (≈ 25.1 µM)
[3] | 8.03 (≈ 15.2 µM)
[4] | 7.97 (≈ 15.1 µM)
[5] | 14.3 (≈ 27.1 µM)
[6] | 14.3 (≈ 27.1 µM)
[7] | 14.7 (≈ 27.8 µM)
[8] | 14.5 (≈ 27.6 µM)
[9] | 7.09 (≈ 13.4 µM)
[10] | 14.3 (≈ 27.1 µM)
[11] | 8.03 (≈ 15.2 µM)
[12] | 14.4 (≈ 27.3 µM)
[13] | 8.04 (≈ 15.2 µM)

[17]
Settings | growth [%]
0.5 µg/mL | 115 ± 4.1
1 µg/mL | 115 ± 5.8
2 µg/mL | 114 ± 1.9
4 µg/mL | 120 ± 8.8
8 µg/mL | 136 ± 5.8
16 µg/mL | 0.526 ± 1.3
32 µg/mL | -1.21 ± 0.69
64 µg/mL | 18.5 ± 28
128 µg/mL | 3.74 ± 6.9
256 µg/mL | -1.01 ± 0.56
512 µg/mL | -0.794 ± 0.35
1024 µg/mL | 0.542 ± 0.67

Reference: the supplement of paper PMC12578646, “Prodrug florfenicol amine is activated by intrinsic resistance to target Mycobacterium abscessus” (Nature Microbiology, 2025)
